Experimental findings from publication PMC4336329 (PLoS ONE, 2015) are described below.

Among all 310,000 compounds or so, about 14,000 (4.5%) showed an effect of 50% or more. Effects have a minus sign here. The list shows a part of the results.
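Also: peak tail current of the secondary pulse compared with the same well before compound.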

human ether-à-go-go-related gene (hERG) potassium channel, sequence (Q12809 whole entry, looked up): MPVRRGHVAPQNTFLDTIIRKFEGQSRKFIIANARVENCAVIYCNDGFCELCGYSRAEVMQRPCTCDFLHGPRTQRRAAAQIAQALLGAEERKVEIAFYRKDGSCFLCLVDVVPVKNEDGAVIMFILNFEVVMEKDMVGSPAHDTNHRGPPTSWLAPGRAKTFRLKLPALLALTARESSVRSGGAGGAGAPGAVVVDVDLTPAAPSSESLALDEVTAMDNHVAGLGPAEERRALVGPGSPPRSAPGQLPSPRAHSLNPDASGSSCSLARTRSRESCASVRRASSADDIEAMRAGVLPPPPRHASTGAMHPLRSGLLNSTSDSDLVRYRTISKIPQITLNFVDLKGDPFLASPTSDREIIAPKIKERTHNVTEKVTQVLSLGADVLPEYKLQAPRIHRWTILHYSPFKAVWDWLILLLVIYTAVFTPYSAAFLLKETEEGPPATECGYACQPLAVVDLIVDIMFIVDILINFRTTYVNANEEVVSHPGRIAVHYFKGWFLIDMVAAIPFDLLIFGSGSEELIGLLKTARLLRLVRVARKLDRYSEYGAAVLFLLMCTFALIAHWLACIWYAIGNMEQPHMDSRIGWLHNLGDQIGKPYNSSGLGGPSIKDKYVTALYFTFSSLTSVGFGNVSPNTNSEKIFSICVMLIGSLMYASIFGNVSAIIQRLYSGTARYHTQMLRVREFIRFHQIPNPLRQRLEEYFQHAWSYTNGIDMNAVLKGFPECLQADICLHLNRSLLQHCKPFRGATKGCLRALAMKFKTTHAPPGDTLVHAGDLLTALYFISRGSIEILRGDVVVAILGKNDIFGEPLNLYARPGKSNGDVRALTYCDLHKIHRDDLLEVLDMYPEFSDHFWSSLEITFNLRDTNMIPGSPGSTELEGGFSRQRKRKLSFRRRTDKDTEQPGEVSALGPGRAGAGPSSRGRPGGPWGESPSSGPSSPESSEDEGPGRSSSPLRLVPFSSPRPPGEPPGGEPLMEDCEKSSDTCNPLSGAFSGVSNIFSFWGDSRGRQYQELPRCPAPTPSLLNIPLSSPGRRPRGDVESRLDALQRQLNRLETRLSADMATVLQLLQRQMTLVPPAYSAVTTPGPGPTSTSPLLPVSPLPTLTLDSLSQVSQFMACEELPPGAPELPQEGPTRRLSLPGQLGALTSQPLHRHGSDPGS

The assay concerns the target human ether-à-go-go-related gene (hERG) potassium channel (human, UniProt Q12809). The experiment in a line: primary screen, population patch clamp on CHO cells stably expressing hERG.
Turning to `COC(=O)c1ccc(S(=O)(=O)N2CCCN(Cc3ccccc3)CC2)n1C`, the “hERG current change (%, negative = inhibition) at 10uM” value was -8.28%.

Take `Nc1nnc(/C=C/c2cccc([N+](=O)[O-])c2)s1`: the “hERG current change (%, negative = inhibition) at 10uM” value is 9.07%.

As for `CN(C)NC(=S)NC(=O)C12CC3CC(CC(C3)C1)C2`, the “hERG current change (%, negative = inhibition) at 10uM” value was determined as 13.2%.

Take `COc1cccc(NC(=O)c2cc(-c3ccc(OC)cc3OC)nc3ccccc23)c1`: the “hERG current change (%, negative = inhibition) at 10uM” value was 11.4%.

On to `CC(=O)c1ccc(C(=O)N2CCC(n3nccc3NC(=O)C3CC3)CC2)cc1`, for which the “hERG current change (%, negative = inhibition) at 10uM” value is listed as -35.8%.

For `NS(=O)(=O)c1ccc(NC(=O)C2CCCO2)cc1` (centres unmarked), the “hERG current change (%, negative = inhibition) at 10uM” value turned out to be 12.8%.

As to `CC(=O)N1CCC[C@H]1C(=O)O`, the “hERG current change (%, negative = inhibition) at 10uM” value stood at 6.95%.

`CCc1ccccc1NC(=O)CN1CCN(C(=O)CNC(=O)Cc2cccc3ccccc23)CC1`: the “hERG current change (%, negative = inhibition) at 10uM” value is on record as -59.6%.

On to `COc1ccc(N2CCN(CCC(O)c3ccc4ccccc4c3)CC2)cc1` (centres unmarked), for which the “hERG current change (%, negative = inhibition) at 10uM” value is reported as -68.3%.

Regarding `O=C(NCCN1CCOCC1)C1CCN(c2nc3ccccc3o2)CC1`, the “hERG current change (%, negative = inhibition) at 10uM” value is recorded as -18.7%.

As for `C=CCOn1c(-n2nc(C)cc2C)nc2ccccc2c1=O`, the “hERG current change (%, negative = inhibition) at 10uM” value is given as 12.8%.

Take `O=C(Cn1nnc(-c2ccncc2)n1)NCCc1ccccc1`: the “hERG current change (%, negative = inhibition) at 10uM” value is 3.47%.

Turning to `COc1ccc(OC)c(S(=O)(=O)N/N=C\c2ccc3c(c2)OCO3)c1`, the “hERG current change (%, negative = inhibition) at 10uM” value is 12.9%.

Take `CCN1CCN(c2oc(-c3ccco3)nc2C#N)CC1`: the “hERG current change (%, negative = inhibition) at 10uM” value was -24.1%.

In the case of `CC(=O)Nc1ccc(C2=NN(CC#N)C(=O)SC2)cc1`, the “hERG current change (%, negative = inhibition) at 10uM” value amounted to 11.9%.

`O=C(NCCc1ccc(Cl)cc1)c1cccc(NC2=NC3CS(=O)(=O)CC3S2)c1` (centres unmarked): the “hERG current change (%, negative = inhibition) at 10uM” value came out at 12.2%.

Consider `CN(C)/C=C(\C=O)c1ncc(C(F)(F)F)cc1Cl`, for which the “hERG current change (%, negative = inhibition) at 10uM” value was found to be 12.9%.

As to `CC(C)n1cnc2cc(NCc3ccco3)ccc21.Cl`, the “hERG current change (%, negative = inhibition) at 10uM” value is -9.63%.

`CCOC(=O)C(Sc1cc(-c2ccccc2)nc2ncnn12)C(C)=O` (centres unmarked): the “hERG current change (%, negative = inhibition) at 10uM” value was determined as 16%.

Take `Cc1ccc2c(COC(=O)CNC(=O)c3ccccc3)cc(=O)oc2c1`: the “hERG current change (%, negative = inhibition) at 10uM” value is -27.6%.

As for `C=CCn1cc(F)c(=O)n(CC=C)c1=O`, the “hERG current change (%, negative = inhibition) at 10uM” value turned out to be 4.34%.

Regarding `COCCNC(=O)CN(C(=O)CCC(=O)Nc1cc(C)on1)c1cccc(C)c1C`, the “hERG current change (%, negative = inhibition) at 10uM” value amounted to 10.6%.

Take `CC1=CC(C)(C)Nc2ccccc21`: the “hERG current change (%, negative = inhibition) at 10uM” value stood at 15.3%.

For `CC(OC(=O)c1cccc(-n2cnnn2)c1)C(=O)Nc1cccc(Cl)c1` (centres unmarked), the “hERG current change (%, negative = inhibition) at 10uM” value is given as -2.88%.

For the molecule `COc1ccc(C(=O)CC2(CC(=O)c3ccc(OC)cc3)C(=O)N(C)C(=O)N(C)C2=O)cc1`, the “hERG current change (%, negative = inhibition) at 10uM” value turned out to be 4.16%.

On to `O=C(/C=C/c1ccccc1)NCCc1c[nH]c2ccccc12`, for which the “hERG current change (%, negative = inhibition) at 10uM” value is listed as -11.3%.

With `O=c1oc2cc(Cl)ccc2n1CSc1nc2ccccc2s1`, the “hERG current change (%, negative = inhibition) at 10uM” value was 10.8%.

As for `O=C(CN(C(=O)C1CSC(=O)C1)c1cccc(F)c1)NCc1ccc2c(c1)OCO2` (centres unmarked), the “hERG current change (%, negative = inhibition) at 10uM” value was -14.7%.

In the case of `CC(C)CCNC(=O)C(c1ccco1)N(Cc1ccccc1)C(=O)c1snc(C(N)=O)c1N` (centres unmarked), the “hERG current change (%, negative = inhibition) at 10uM” value is -20%.

As to `COc1cc(Nc2ccc(C)cc2)c([N+](=O)[O-])nc1[N+](=O)[O-]`, the “hERG current change (%, negative = inhibition) at 10uM” value was -1.14%.

`COC(=O)CCC(=O)OC1(C)C(=O)C=C2C=C(C3CC3)N(C(CO)CO)C=C2C1=O` (centres unmarked): the “hERG current change (%, negative = inhibition) at 10uM” value stood at 5.72%.

For the molecule `Nc1ccc(C(=O)N/N=C/c2sc(N3CCOCC3)nc2-c2ccccc2)cc1`, the “hERG current change (%, negative = inhibition) at 10uM” value was -21.6%.

Regarding `CCCn1c(SCC(=O)c2[nH]c(C)c(C(C)=O)c2C)n[nH]c1=O`, the “hERG current change (%, negative = inhibition) at 10uM” value is given as -1.57%.

In the case of `COC(=O)C1=C(c2ccc(F)cc2OCc2ccccc2)C[C@@H]2CC[C@H]1N2C(=O)NCCOc1ccccc1`, the “hERG current change (%, negative = inhibition) at 10uM” value is given as 23.6%.

Consider `CC(C)c1ccc(S(=O)(=O)N2CCN(C(=O)C3CCCCC3)CC2)cc1`, for which the “hERG current change (%, negative = inhibition) at 10uM” value is listed as -2.35%.

Regarding `Cc1cc(O)c(C(=O)/C=C/c2ccccc2O)c(=O)o1`, the “hERG current change (%, negative = inhibition) at 10uM” value is recorded as 2.46%.

As to `CCOC(=O)Cc1csc(NC(=O)CSc2nnc(Cc3csc(N)n3)n2C)n1`, the “hERG current change (%, negative = inhibition) at 10uM” value is recorded as -1.19%.

Consider `S=C(Nc1ccc(Cl)cc1)c1nc2ccccc2[nH]1`, for which the “hERG current change (%, negative = inhibition) at 10uM” value amounted to 17.6%.

For the molecule `O=C(O)c1ccccc1C(=O)Nc1cc(C(F)(F)F)ccc1N1CCCC1`, the “hERG current change (%, negative = inhibition) at 10uM” value is recorded as -3.78%.

Turning to `COC(=O)CN(c1nc(C)c(Br)c(OC)n1)S(=O)(=O)c1ccc(C)cc1`, the “hERG current change (%, negative = inhibition) at 10uM” value is given as -9.43%.

Turning to `CC(C)[C@H](NC(=O)OC(C)(C)C)c1nnc(SCc2cccc(F)c2)o1`, the “hERG current change (%, negative = inhibition) at 10uM” value is -43.1%.

On to `COc1cc(C(=O)Nc2c(C)cc(C)cc2C)c([N+](=O)[O-])cc1OC`, for which the “hERG current change (%, negative = inhibition) at 10uM” value amounted to 5.56%.

In the case of `Cc1ccccc1N(CC(=O)NC1CCCC1)C(=O)C1(C)CC(=O)N=C2C=CC=CN21` (centres unmarked), the “hERG current change (%, negative = inhibition) at 10uM” value was 18.5%.

`O=C(CSc1n[nH]c(-c2ccncc2)n1)Nc1ccc(Cl)c(Cl)c1`: the “hERG current change (%, negative = inhibition) at 10uM” value is reported as -7.17%.
